Here are results for 95 compounds from PubChem BioAssay AID485344 (National Center for Advancing Translational Sciences (NCATS), 2010).

Out of some 340,000 compounds screened, about 6,900 (2%) were called active. No stated cut-off is given here; in the data, active means inhibition above about 30%; inactive means below that, where a call was filed. This is a selection; strong and weak results do not stand in their true shares. Where no call is shown, the source filed none.

The target of the experiment is D(2) dopamine receptor (Homo sapiens) (UniProt P14416). Description: HTS Assay for Allosteric Antagonists of the Human D2 Dopamine Receptor: Primary Screen for Antagonists. Further: 0% is about no effect. Conditions: HEK293 TREx D2 cells, calcium flux, dopamine EC80; at 10 µM; stronger effect = higher value. The procedure, abridged: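 Calcium mobilization kinetics were recorded at 1 s intervals in tetracycline-induced HEK293 T-REx D2 cells, first for 180 s after compound addition and then 180 s after EC80 dopamine.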
Chain of UniProt P14416 (P14416 whole entry, looked up): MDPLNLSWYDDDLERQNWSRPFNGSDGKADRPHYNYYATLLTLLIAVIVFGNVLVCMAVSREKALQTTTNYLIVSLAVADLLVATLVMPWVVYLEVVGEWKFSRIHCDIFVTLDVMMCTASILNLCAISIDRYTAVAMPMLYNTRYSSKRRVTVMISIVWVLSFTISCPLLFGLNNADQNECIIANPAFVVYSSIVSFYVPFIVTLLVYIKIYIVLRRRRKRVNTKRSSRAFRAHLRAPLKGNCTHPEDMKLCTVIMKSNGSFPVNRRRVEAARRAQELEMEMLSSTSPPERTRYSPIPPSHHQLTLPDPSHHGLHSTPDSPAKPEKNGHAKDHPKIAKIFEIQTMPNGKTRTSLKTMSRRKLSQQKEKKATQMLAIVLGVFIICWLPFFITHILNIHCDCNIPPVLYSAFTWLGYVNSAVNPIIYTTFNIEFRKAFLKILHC
In general terms: Calcium assays in cells follow changes in intracellular calcium, usually with a dye or a luminescent sensor.
Broadly, the inhibition is the relative decrease from the control value, in per cent. For the compound `COc1ccc(CN2C(=O)N(c3ccc(C)cc3)C(=O)C2CC(=O)Nc2ccccc2)cc1OC` (stereo not given), the inhibition came out at 23.6%. As for `Cc1ccc(NC(=O)Cc2nnc(SCC(=O)NC3CCCC3)n2C)cc1C`, the inhibition was active: 31.4%. To `COc1ccccc1/C=C\C(=O)NCC(=O)N/N=C/c1ccc(O)cc1O` belongs active: 77.4%; to `Cc1ccc(-n2nc3c(c2NC(=O)c2ccco2)CS(=O)C3)c(C)c1` (stereo not given), active: 33.3%. To `CCCc1cc(C(=O)Nc2c(C)nn(Cc3ccc(Cl)c(Cl)c3)c2C)no1` belongs 8.01%. As for `COc1ccc(N2CCN(C(=O)c3ccc4c(Cl)c5c(nc4c3)CCCC5)CC2)cc1`, the inhibition turned out to be 19.8%. As to `CCOC(=O)c1c(NC(C)=O)c2c3c(sc2n1Cc1nc(-c2cccc(C)c2)oc1C)CCCC3`, the inhibition stood at 7.66%. For the compound `CCOc1ccc(-c2cc(C(=O)NCCc3ccc(Cl)cc3)c3ccccc3n2)cc1`, the inhibition was 21.9%. For `COc1cc(-c2cc(OC)c3c(C)oc(C)c3c(=O)c2)ccc1OC(=O)c1ccccc1F`, the inhibition is -2.9%. To `COc1ccccc1C(=O)NC1=NC(c2ccc(Br)cc2)CC(=O)N1` (stereo not given) belongs 15.4%; to `COc1ccccc1-c1nc(CNC(=O)Nc2ccccc2)c(C)o1`, 11.8%; to `OCCCc1nc2n(n1)C(c1cccc(Cl)c1)C=C(c1ccccc1)N2` (stereo not given), 6.63%. With `Cc1nnc(NC(=O)C(=O)c2cc(C)n(-c3ccc(C)c(C)c3)c2C)s1`, the inhibition was 22.3%.

`Cc1cccc(-n2c(=O)c3c(c4cc(C)ccc4n3C)n(CC(=O)Nc3ccc(C)cc3C)c2=O)c1`: the inhibition was -0.205%.

For the compound `Cc1ccc(C(=O)Nc2ccc3oc(-c4ccncc4)nc3c2)c(Cl)c1`, the inhibition was -6.77%.

Turning to `C=CCc1cc(OC)ccc1OCCOCCN1CCc2ccccc2C1`, the inhibition was active: 84.1%. For the compound `CCc1ccc(-n2c(=O)c3cccnc3n2CC(=O)Nc2ccccc2C(F)(F)F)cc1`, the inhibition is 0.449%.

Regarding `COc1ccc(-c2cn3c(n2)sc2cc(C(=O)Nc4cc(OC)cc(OC)c4)ccc23)cc1`, the inhibition turned out to be 6.76%. To `COc1ccc(-c2ccc(CCC(=O)O)n2CC(=O)Nc2cccc(C(F)(F)F)c2)cc1` belongs 12.7%; to `Cc1nn(C)c(C)c1S(=O)(=O)N1CCC(C(=O)NC2CCCCCC2)CC1`, active: 32.7%. As for `Cc1ccc2nc(NCCc3ccccc3)c3nncn3c2c1`, the inhibition was 21.2%. Turning to `Cc1nn(-c2ccccc2)c(OC(=O)C(C)(C)C)c1Sc1ccccc1`, the inhibition worked out at 4.96%. Consider `CCn1c(=O)cc(OCC(=O)Nc2ccc(C)c(F)c2)c2ccccc21`, for which the inhibition is -24.9%. As for `Cc1ccc(Cn2c(SCc3ccc(C(=O)NC4CCCC4)cc3)nc3ccncc32)cc1`, the inhibition worked out at 6.79%. In the case of `CCCC(C(=O)NC1CCCC1)N(CC1CCCO1)C(=O)CNS(=O)(=O)c1ccc(F)cc1` (stereo not given), the inhibition was active: 31.8%. With `Cc1ccc(-n2c(-c3ccco3)nc3c(cnn3-c3ccccc3C)c2=O)cc1`, the inhibition was -8.3%.

As to `COC(=O)c1cc(NS(=O)(=O)c2cc(Br)cc3c2N(C(C)=O)CC3)cc(C(=O)OC)c1`, the inhibition is -8.96%. On to `COCCn1c(=N)c(C(=O)NCc2ccco2)cc2c(=O)n3cc(C)ccc3nc21`, for which the inhibition came out at 1.67%. To `Cc1ccc(NC(=O)CCS(=O)(=O)c2cc(Br)cc3c2N(C(=O)C2CC2)CC3)cc1` belongs -1.14%; to `O=C(CSc1oc(-c2ccccc2)nc1S(=O)(=O)c1ccccc1)c1ccccc1`, -4.9%; to `COc1ccc(-c2cc(C(=O)Nc3sc4c(c3C#N)CCCC4)no2)cc1OC`, -19.5%. In the case of `COc1cccc(NC(=O)c2ccc3nc(Cc4ccccc4)oc3c2)c1`, the inhibition amounted to 9.05%. In the case of `COC(=O)CCN(C(=O)C12CC3CC(CC(C3)C1)C2)c1ccccn1`, the inhibition is active: 33%. As for `CC(C)Cn1cc(NC(=O)NCc2ccccc2Cl)c2ccccc2c1=O`, the inhibition is -5.63%. On to `CC(NC(=O)C1CCN(S(=O)(=O)c2ccc3nc4c(c(C(=O)O)c3c2)CCCC4)CC1)c1ccccc1` (stereo not given), for which the inhibition turned out to be 1.56%. To `O=C(NNC1=Nc2cccc3cccc1c23)c1ccc(Br)cc1` belongs active: 83.4%; to `Cc1ccc(Cl)cc1NC(=O)CCS(=O)(=O)c1ccc2c(c1)n(C)c(=O)c(=O)n2C`, 6.64%; to `Cc1ccc(-n2c3nc(=O)[nH]c(=O)c-3cc3c(C)nn(-c4ccccc4)c32)c(C)c1`, 5.46%.

With `COC(=O)CN1C(=O)C(O)(CC(=O)c2ccc(F)cc2)c2ccccc21` (stereo not given), the inhibition was 6.46%. Take `CCOC(=O)CSc1nc2ccc(NC(=O)COc3ccccc3C)cc2s1`: the inhibition was 0.302%.

For the compound `O=C(Nc1ccc(Cl)cc1)c1cc2c(-c3ccccc3)nn(-c3ccccc3)c2s1`, the inhibition stood at 3.25%. For `Cc1nn(CC(=O)N2CCCCC2)c(=O)c2cc3occc3n12`, the inhibition stood at 3.3%. In the case of `COc1ccc(CNC(=O)Cn2nc(C)c3c(C)n(-c4ccccc4)nc3c2=O)cc1OC`, the inhibition was -1.69%. With `CCCCc1ccc(NC(=O)C2(C)Cc3ccccc3C(=O)O2)cc1` (stereo not given), the inhibition was -13.1%. In the case of `COc1ccc(N(C)C(=O)c2cc(S(=O)(=O)N3CCc4ccccc43)cn2C)c(OC)c1`, the inhibition turned out to be 11.1%. Take `CCc1ccc(C2CC(=O)Oc3c2c(=O)n(C)c2ccccc32)cc1` (stereo not given): the inhibition was -18.3%. With `Cc1cc(C)cc(NC(=O)Cn2cc(C(=O)c3ccccc3)c(=O)c3ccc(C)nc32)c1`, the inhibition was -1.82%.

For `Cn1c(=O)c2nc(SCC(=O)Nc3ccc(Cl)c(Cl)c3)n(C)c2n(C)c1=O`, the inhibition was -0.158%. In the case of `CCC(=O)N1CCc2cc(S(=O)(=O)N3CCCCCC3)ccc21`, the inhibition was active: 30.7%.

Regarding `CCc1ccc(CN(C(=O)c2cc(=O)c3ccc(C)cc3o2)C2CCS(=O)(=O)C2)cc1` (stereo not given), the inhibition is -9.8%. With `CC(C)Cn1c(=O)c2sccc2n2c(CCCC(=O)NC3CCCCC3)nnc12`, the inhibition is -12.2%.

Regarding `CCN(CC)CCNC(=O)c1ccc(-n2c(-c3ccccc3)cc3c2CCCC3)cc1`, the inhibition came out at 26.1%. `COc1cccc(CNC(=O)CCCn2nc(C)c3c(C)n(-c4ccc(C)cc4)nc3c2=O)c1OC`: the inhibition was -1.44%.

In the case of `Cc1c(Cl)c([N+](=O)[O-])nn1CC(=O)NCc1ccco1`, the inhibition was active: 42.1%. In the case of `Cc1ccc(NC(=O)c2c(NC(=O)c3ccccc3)sc3c2CCC3)cc1`, the inhibition is -8.25%.

On to `NC(=O)c1nsc(C(=O)N(c2ccccc2)C(C(=O)NCc2ccc(F)cc2)c2ccc(O)cc2)c1N` (stereo not given), for which the inhibition is active: 57%.

In the case of `CC1CCc2c(sc(NC(=O)c3cc(-c4ccc(F)cc4)on3)c2C(N)=O)C1` (stereo not given), the inhibition was -4.59%. On to `Cc1ccc2sc(N(Cc3cccnc3)C(=O)C3COc4ccccc4O3)nc2c1C` (stereo not given), for which the inhibition is 27%. To `CC1=Nc2cc(C(=O)NC(C)C)ccc2Sc2ccc(C)cc21` belongs -6.66%. For `Fc1ccc(Br)cc1C1C=C(c2ccc(Br)cc2)Nc2nnnn21` (stereo not given), the inhibition is -11.1%.

For the compound `Cc1ccc(CNC(=O)CCCN2C(=O)COc3ccc(C)cc32)cc1`, the inhibition is 2.6%. In the case of `Cc1ccc(NC2CCCN(C(=O)c3cccnc3)C2)cc1C` (stereo not given), the inhibition was active: 35.6%. For `Cc1cccc(NC(=O)C(=O)NCCc2csc(-c3ccc(C(F)(F)F)cc3)n2)c1C`, the inhibition is -7.2%. In the case of `O=C(CC1N=C2c3ccccc3N=C(SCC(=O)Nc3ccccc3F)N2C1=O)NCc1cccs1` (stereo not given), the inhibition came out at 15%. Take `COc1ccc(S(=O)(=O)c2nnn(-c3ccc(C)c(Cl)c3)c2C)cc1`: the inhibition was -0.899%.

In the case of `CCOC(=O)C1(CCc2ccccc2)CCN(Cc2cnc(N(C)C)s2)CC1`, the inhibition was active: 50.5%. As for `COc1ccc(NC(=O)CC2C(=O)N(c3cccc(OC)c3)C(=O)N2Cc2ccc3c(c2)OCO3)cc1` (stereo not given), the inhibition was 2.48%. With `Cc1ccc(-c2cn(-c3ccc(Cl)cc3)c(S(=O)(=O)CC(=O)Nc3ccccc3)n2)cc1`, the inhibition was 8.81%. As to `CCOc1ccc(S(=O)(=O)NCCc2sc3nc(-c4ccc(C)cc4)nn3c2C)cc1`, the inhibition is -1.03%. Consider `Cc1cc(C)cc(-n2ccn(Cc3ccc(F)cc3)c(=O)c2=O)c1`, for which the inhibition came out at 2.07%.

`CCCn1c(CCC(=O)Nc2ccccc2OC)nc2cccnc21`: the inhibition turned out to be 2.93%.

With `CC(=O)Nc1ccc(S(=O)(=O)N(C2=NCC(C)S2)c2ccccc2)cc1` (stereo not given), the inhibition is active: 50.7%. Consider `O=C(CCC(=O)Nc1ccccc1)N/N=C/C=C/c1ccccc1`, for which the inhibition was active: 30.3%. To `CC1CCN(CCCNC(=O)CCc2nnc3n(CCc4ccccc4)c(=O)c4ccccc4n23)CC1` belongs active: 61.1%; to `O=c1oc2ccccc2cc1-c1cn2cc(Cc3ccc(Br)cc3)sc2n1`, 0.928%; to `O=c1c2sc3ccccc3c2n(Cc2cccc(C(F)(F)F)c2)c(=O)n1Cc1ccc(F)cc1`, -3.67%. To `Cc1cccc(C)c1Nc1c(-c2ccc(O)cc2)nc2sccn12` belongs -3.9%; to `CCOc1ccc(S(=O)(=O)Nc2cc(Cl)ccc2OC)c2cccnc12`, -15.8%; to `Cc1ccc(/C=C/c2onc(C)c2S(=O)(=O)N2CCC(C(=O)Nc3cc(F)ccc3F)CC2)cc1`, -3.17%. As to `COCCn1c(=O)[nH]c2cc(C(=O)Nc3cccc(C(C)=O)c3)ccc2c1=O`, the inhibition was determined as 7.02%. To `Cc1ccc(CN2CCCn3nc(C(=O)NCC(C)c4ccccc4)cc3C2=O)cc1` (stereo not given) belongs -0.402%. Consider `CCc1nn(CC(=O)NCCCOC)c(=O)c2cc3ccccc3n12`, for which the inhibition amounted to 16.4%.

Take `Cc1cc(C)c2oc(C(=O)Nc3ccc(S(=O)(=O)Nc4nccc(C)n4)cc3)cc(=O)c2c1`: the inhibition is -12.1%. Take `COc1ccccc1-c1cc(C(=O)NC(C)c2ccccc2)no1` (stereo not given): the inhibition was active: 60.8%. To `Cc1nnc2c3ccccc3nc(Nc3cccc(O)c3)n12` belongs 0.856%; to `CCCCOC(=O)c1ccc(Nc2nnc(-n3nc(C)cc3C)c3ccccc23)cc1`, 5.4%; to `CCOC(=O)c1ccc(NC(=O)c2nc(SCc3ccccc3F)ncc2Cl)cc1`, -2.53%. Consider `COc1ccc(-c2noc(CSc3nc(N)cc(=O)[nH]3)n2)cc1OC`, for which the inhibition was 1.83%.

`O=C(NC1CC(=O)N(c2ccc(Cl)cc2)C1)c1ccc(S(=O)(=O)N2CCOCC2)cc1` (stereo not given): the inhibition is -11.6%. On to `COc1ccc(-c2noc(CN(C(=O)c3cc(OC)c(OC)cc3OC)C(C)C)n2)cc1`, for which the inhibition is 14.3%.

Consider `COc1cc(C2C(C(=O)Nc3ccccc3)=C(C)Nc3nnnn32)cc(OC)c1OC` (stereo not given), for which the inhibition was determined as 6.6%. As for `CCOc1ccc2nc(N3CCCC(C(=O)NCc4ccccc4OC)C3)sc2c1` (stereo not given), the inhibition turned out to be 17.9%. Turning to `CCCn1c2ccccc2c2cnn(CC(=O)NCCc3ccc(C)cc3)c(=O)c21`, the inhibition was determined as 2.69%. Consider `Cc1ccc(Cl)cc1NC(=O)C1CCN(c2nc3ccccc3n3cccc23)CC1`, for which the inhibition came out at 0.723%. To `CCc1ccc(C2c3c(-c4ccccc4)n[nH]c3C(=O)N2c2ccc(C(=O)O)cc2)cc1` (stereo not given) belongs 16.5%.
